# Assay results from PubChem BioAssay AID504832 (National Center for Advancing Translational Sciences (NCATS), 2011).
# Hit rate of the full screen: of about 310,000 compounds, about 18,000 (5.8%) were called active. The inconclusive results got no clear call from the source; some entries with a clear call stand among them for comparison. Calls come from the whole dose curve; as a rule, active = well fitted inhibition curve with a large enough effect; inconclusive = small, poorly fitted or top-dose-only effect, or another doubt; inactive = no such curve, though single readings can be large or run the other way. Potencies of inconclusive entries are left out as doubtful fits.
# Assay: Primary qHTS for delayed death inhibitors of the malarial parasite plastid, 48 hour incubation
# Conditions: P. falciparum luciferase growth in erythrocytes; series mostly up to 28.7 µM
# Procedure, shortened: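 Parasite viability was followed by luminescence of a genomically integrated firefly luciferase. Cultures held 0.1% parasitemia at 2% hematocrit (final), incubated under 5% CO2 at 37 C.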
# Potency is the fitted concentration of half-maximal effect; tags give direction and shape of the fitted curve.
row,Structure (SMILES),Potency
1,CCCCOc1ccc(S(=O)(=O)N2CCN(c3ccc(N4CCN(CC)CC4)nn3)CC2)cc1,active: 11.7 µM
2,CSc1cccc(NC(=S)N(Cc2ccc(C)cc2)Cc2cccnc2)c1,"inconclusive [inhibitor, partial curve, poor fit]"
3,COc1ccc(C(=O)N=C2SC3CS(=O)(=O)CC3N2Cc2ccc(OC)c(OC)c2)cc1 (stereo not given),"inconclusive [inhibitor, single point]"
4,CN1/C(=C\C(=O)C(F)F)C(C)(C)c2ccccc21,inactive
5,Clc1ccc(C2[C@H]3CN(Cc4cccnc4)[C@H](c4ccccc4)C34CC2(c2ccccc2)C4)cn1 (stereo not given in full),active: 10.4 µM
6,CC(=O)Nc1ccc(S(=O)(=O)NCCC(=O)NNC(=O)c2ccncc2)cc1,"inconclusive [inhibitor, single point]"
7,CC(=O)N1CCc2cc(Br)cc(S(=O)(=O)N3CCN(c4ccccn4)CC3)c21,"inconclusive [inhibitor, single point]"
8,CCC(=O)NC(c1ccc(C)cc1)c1ccc2cccnc2c1O (stereo not given),active: 4.65 µM
9,CCOc1cc(-c2cc(N)n[nH]2)cc(OCC)c1OCC,active: 13.1 µM
10,CC(=O)Nc1cccc(C(=O)OC(C(=O)c2ccc(C)cc2)c2ccccc2)c1 (stereo not given),active: 1.47 µM
11,CCCCCC(=O)Nc1cccc(S(=O)(=O)NC2=NCCC2)c1,"inconclusive [inhibitor, single point]"
12,Oc1ccccc1Cc1c(O)ccc2ccccc12,inactive
13,CCOC(=O)N1CCN(c2cc(=O)n(C3CCCCC3)c(=O)[nH]2)CC1,inactive
14,Cc1ccc(S(=O)(=O)Nc2nc(CN3CCOCC3)nc3sc(C)c(C)c23)cc1,"inconclusive [inhibitor, single point]"
15,COC(=O)CC(NC(=S)NC(=O)c1ccccc1)c1ccc(Br)cc1 (stereo not given),"inconclusive [inhibitor, partial curve]"
16,C=CCN(c1ccccc1)S(=O)(=O)c1cc(C(=O)NC2=NCCS2)ccc1Cl,"inconclusive [inhibitor, partial curve, poor fit]"
17,O=C(Cc1ccc(F)cc1)N1CCN(c2ccc([N+](=O)[O-])cc2)CC1,"inconclusive [inhibitor, partial curve, poor fit]"
18,Cc1ccc(-c2nc3c(c(=O)c4ccccc4n3C)c(=O)n2Cc2ccco2)cc1,"inconclusive [inhibitor, partial curve, poor fit]"
19,CN1CCN(c2ccc(NC(=O)c3ccc(-c4ccc(Br)cc4)o3)cc2)CC1,active: 10.4 µM
20,OCC[C@H]1C[C@H](O)[C@@H](O)[C@]2(CCc3ccccc3CO2)O1,"inconclusive [inhibitor, single point]"
21,CCOc1ccccc1NC(=O)n1ncc2c(C)cccc21,inactive
22,CN(C)CCCN(C(=O)c1ccc2c(c1)OCCO2)c1nc2cc3c(cc2s1)OCO3,inactive
23,Cc1ccccc1OCC(=O)Nc1ccc2c(c1)OCO2,inactive
24,Cc1ccc(C)c(NC(=O)CN(C)C(=O)c2cccc(S(=O)(=O)N(C)C)c2)c1,"inconclusive [inhibitor, single point]"

row,Structure (SMILES),Potency
1,CC(C)(C)c1ccc(C(=O)Cn2cnnc2C#N)cc1,inactive
2,Cc1ccc(C)c(OCCC(=O)OCC(=O)N2CCN(S(=O)(=O)c3ccc(Cl)cc3)CC2)c1,"inconclusive [inhibitor, single point]"
3,COc1cccc(OCc2cc(C(=O)NCc3ccccn3)no2)c1,inactive
4,COc1ccc(CCNc2ncnc3cc(OC)c(OC)cc23)cc1OC,active: 13.1 µM
5,Cc1cc(C)n(CCCNC(=O)c2ccc(C)o2)n1,inactive
6,CC1CN(C(=O)CSc2nnc(-c3ccccc3)o2)CC(C)O1 (stereo not given),inactive
7,C=CCNC(=S)Nc1cccc2ccccc12,inactive
8,Cc1ccc(N=C2NC(=O)/C(=C/c3cccnc3)S2)cc1C,"inconclusive [inhibitor, partial curve, poor fit]"
9,COc1cc(/C=N/Nc2nc(N3CCCC3)nc(N3CCCC3)n2)ccc1O,"inconclusive [inhibitor, partial curve]"
10,COCc1ccc(CN2CCC(C(=O)Nc3cccc(-c4cccc(Cl)c4)c3)CC2)o1,active: 13.1 µM
11,COc1ccccc1CN(C)C(=O)c1cc(C)nc2ccccc12,inactive
12,COc1ccc(C(=O)N/C(=C\c2ccc3c(c2)OCO3)C(=O)NCCc2nc3ccccc3[nH]2)cc1,inactive
13,CCOC(=O)C1CCN(S(=O)(=O)c2cc(Br)cc3c2N(C(C)=O)C(C)C3)CC1 (stereo not given),active: 8.28 µM
14,Cc1ccc(S(=O)(=O)N2CCN(c3nc4ccccc4nc3-n3nc(C)cc3C)CC2)cc1,active: 10.4 µM
15,COc1ccc(/C=c2\sc3nc(-c4ccccc4)c(-c4ccccc4)n3c2=O)cc1OC,"inconclusive [inhibitor, partial curve, poor fit]"
16,COc1ccccc1NC(=O)CSc1nc2c(oc3ccccc32)c(=O)n1C,"inconclusive [inhibitor, partial curve]"
17,COc1ccc(-c2nc(CN(C)C(C)c3ccon3)c(C)o2)c(C)c1C (stereo not given),"inconclusive [inhibitor, partial curve, poor fit]"
18,CCN(C(=S)NCc1ccccc1)c1ccccc1,"inconclusive [inhibitor, partial curve, poor fit]"
19,COc1ccc(C2=NO[C@@H]3[C@@H]4C[C@@H]([C@H]5C(=O)N(c6ccc7c(c6)OCO7)C(=O)[C@@H]45)[C@H]23)cc1OC,inactive
20,CC(OC(=O)/C=C/c1ccccc1)C(=O)Nc1cccc(C#N)c1 (stereo not given),"inconclusive [inhibitor, single point]"
21,CN(C)CCCNC(CC(=O)Nc1cccc([N+](=O)[O-])c1)C(=O)O (stereo not given),inactive
22,CS(=O)(=O)N1CCCC(C(=O)Nc2cccc(F)c2)C1 (stereo not given),"inconclusive [inhibitor, full curve, poor fit]"
23,Cc1nc(-c2ccccn2)sc1C(=O)Nc1ccc(F)cc1,inactive
24,COC(=O)c1ccccc1NC(=S)NC(NC(=O)COc1ccccc1)C(Cl)(Cl)Cl (stereo not given),"inconclusive [inhibitor, partial curve, poor fit]"

row,Structure (SMILES),Potency
1,CCN(CC)S(=O)(=O)c1ccc(N2CCCCC2)c(NC(=O)/C=C/c2cc(OC)c(OC)c(OC)c2)c1,"inconclusive [inhibitor, single point]"
2,COCCn1nnnc1C(c1cc2cccc(C)c2[nH]c1=O)N1CCN(c2ccccc2F)CC1 (stereo not given),"inconclusive [inhibitor, single point]"
3,CC(C)(C)C1=CC(O)(c2ccccc2)C=C(C(C)(C)C)C1=O,active: 10.4 µM
4,CC(NC(=O)CN1C(=O)NC2(CCCCCC2)C1=O)c1ccccc1 (stereo not given),"inconclusive [inhibitor, single point]"
5,O=C(CCN1C(=O)/C(=C/c2cccs2)SC1=S)Nc1cccc(C(=O)O)c1,inactive
6,CCc1ccc(N2NC(=O)/C(=C/C=C/c3ccco3)C2=O)cc1,inactive
7,COc1cccc(C(=O)Oc2ccccc2/C=C\C(=O)c2cc3ccccc3o2)c1,"inconclusive [inhibitor, single point]"
8,C[C@H](CN1c2ccccc2Sc2cccnc21)N(C)C,"inconclusive [inhibitor, single point]"
9,Cc1ccc(-n2nc3c(c2NC(=O)c2c(-c4ccccc4Cl)noc2C)CSC3)cc1,active: 13.1 µM
10,CCOC(=O)c1[nH]c(C)c(CN(CCc2ccc(OC)c(OC)c2)C(=O)CCCC(=O)O)c1C,"inconclusive [inhibitor, single point]"
11,O=C(c1cc(C2CC2)nc2ccc(Br)cc12)N1N=C(C(F)F)CC1(O)C(F)F (stereo not given),"inconclusive [inhibitor, single point]"
12,COc1ccc(N(C(=O)/C=C/c2ccc(OC)c(OC)c2)C2=CC3CCC(C2)N3C)cc1 (stereo not given),"inconclusive [inhibitor, partial curve, poor fit]"
13,Cc1ccccc1C(C(=O)NC1CCCC1)N(C(=O)CNC(=O)c1ccco1)c1cccnc1 (stereo not given),inactive
14,O=C(NCCCO)c1cc2ccccc2[nH]1,inactive
15,Cc1ccsc1C(=O)C1CCCN(Cc2cccn2-c2ccccn2)C1 (stereo not given),"inconclusive [inhibitor, partial curve]"
16,Cc1cc(NC(=O)c2cnn3c(C(F)F)cc(-c4ccccc4)nc23)no1,"inconclusive [inhibitor, single point]"
17,CC(C)CC(=O)Nc1ccc(C(=O)COc2ccc(-c3nnco3)cc2)cc1,"inconclusive [inhibitor, single point]"
18,CC(NC(=O)C1CCN(C(=O)c2cccs2)CC1)c1ccc(S(N)(=O)=O)cc1 (stereo not given),"inconclusive [inhibitor, partial curve, poor fit]"
19,COc1ccc(C(=O)Oc2ccc(Br)cc2C(=S)N2CCOCC2)cc1,"inconclusive [inhibitor, partial curve, poor fit]"
20,CC1CCCN(c2ccc(C(=O)NCc3cccs3)cn2)C1 (stereo not given),inactive
21,CCCCNc1nc2sc3c(c2c(=O)n1-c1cccc(Cl)c1)CCN(C)C3,active: 1.85 µM
22,COc1ccc(C(C(=O)NC(C)(C)C)N(C(=O)CCC(=O)Nc2cc(C)on2)c2cc(C)cc(C)c2)cc1 (stereo not given),"inconclusive [inhibitor, single point]"
